According to paper PMC4336329 (PLoS ONE, 2015):
The campaign covered roughly 310,000 compounds. About 14,000 (4.5%) showed an effect of 50% or more. Effects have a minus sign here. The list shows a part of the results.

molecular target: human ether-à-go-go-related gene (hERG) potassium channel (human, UniProt Q12809); experiment: primary screen, population patch clamp on CHO cells stably expressing hERG
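Note: peak tail current of the secondary pulse compared with the same well before compound.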

Sequence of human ether-à-go-go-related gene (hERG) potassium channel (Q12809 whole entry, looked up): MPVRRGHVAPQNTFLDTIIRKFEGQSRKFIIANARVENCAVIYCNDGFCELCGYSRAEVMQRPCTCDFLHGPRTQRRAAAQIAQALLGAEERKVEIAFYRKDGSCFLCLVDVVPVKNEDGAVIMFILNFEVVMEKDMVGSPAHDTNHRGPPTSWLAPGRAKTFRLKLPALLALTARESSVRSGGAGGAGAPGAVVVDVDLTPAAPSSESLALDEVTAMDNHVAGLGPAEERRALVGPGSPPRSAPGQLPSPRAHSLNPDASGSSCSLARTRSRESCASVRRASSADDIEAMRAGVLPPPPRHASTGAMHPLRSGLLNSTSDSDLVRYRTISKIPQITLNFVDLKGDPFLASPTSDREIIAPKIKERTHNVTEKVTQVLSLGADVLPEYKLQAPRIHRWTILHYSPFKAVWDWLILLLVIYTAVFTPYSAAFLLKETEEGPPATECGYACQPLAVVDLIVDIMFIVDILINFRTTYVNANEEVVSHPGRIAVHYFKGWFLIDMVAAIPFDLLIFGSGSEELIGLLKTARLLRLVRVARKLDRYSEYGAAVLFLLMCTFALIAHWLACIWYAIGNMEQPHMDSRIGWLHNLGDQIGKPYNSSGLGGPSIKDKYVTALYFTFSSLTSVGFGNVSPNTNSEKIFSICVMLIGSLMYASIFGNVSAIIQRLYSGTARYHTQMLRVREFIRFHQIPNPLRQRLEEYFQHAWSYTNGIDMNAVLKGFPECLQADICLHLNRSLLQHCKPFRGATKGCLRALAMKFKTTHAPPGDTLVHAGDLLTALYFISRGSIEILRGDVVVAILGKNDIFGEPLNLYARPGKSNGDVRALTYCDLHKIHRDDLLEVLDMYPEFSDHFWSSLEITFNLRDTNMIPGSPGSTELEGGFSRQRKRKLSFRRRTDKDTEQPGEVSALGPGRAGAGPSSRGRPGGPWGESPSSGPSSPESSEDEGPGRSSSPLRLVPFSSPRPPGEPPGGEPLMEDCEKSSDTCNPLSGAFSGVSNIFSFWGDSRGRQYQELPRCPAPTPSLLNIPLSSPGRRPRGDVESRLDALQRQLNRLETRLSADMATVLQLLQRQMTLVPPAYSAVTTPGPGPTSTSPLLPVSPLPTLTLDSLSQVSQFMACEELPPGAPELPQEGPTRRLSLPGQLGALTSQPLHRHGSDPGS

Going from COc1cc(/C=N/N=C2/NC(=O)C(CC(=O)O)S2)ccc1OCc1ccc(Cl)cc1 (centres unmarked) to COc1cc(/C=C(/C#N)C(=O)NCCc2c[nH]c3ccccc23)ccc1OCc1ccccc1F, the “hERG current change (%, negative = inhibition) at 10uM” value falls from 20.2% to 7.65%.

First: C=Cn1ccnc1CC(O)c1ccc(OC)cc1 (centres unmarked)
Second: COc1ccc(-c2ocnc2C(=O)NCc2nn(-c3ccccc3)nc2C)cc1
The “hERG current change (%, negative = inhibition) at 10uM” value of the first is higher: 9.75% for the first, 5.05% for the second.

First: CCNc1nc(=S)nc(NC(C)C)[nH]1
Second: CC(C)[C@H](NC(=O)CCn1nnc2ccccc2c1=O)C(=O)O
The “hERG current change (%, negative = inhibition) at 10uM” value of the first is higher: 29.6% for the first, 22% for the second.

First: Nc1nnc(-c2cn(-c3ccccc3)nc2-c2ccc(Cl)cc2)o1
Second: COn1c(-c2ccc(Cl)cc2)nc2ccc(Cl)cc21
The “hERG current change (%, negative = inhibition) at 10uM” value of the first is higher: 12.7% for the first, -4.56% for the second.

Going from COc1cc(OC)c(C(=O)O/N=C(\N)c2cccc(C)c2)cc1OC to N/C(=N\OC(=O)c1ccc(Cl)cc1[N+](=O)[O-])c1cccnc1, the “hERG current change (%, negative = inhibition) at 10uM” value falls from 0.724% to -11.3%.

Compared with CCC(C)n1c(NC(=O)c2ccccc2)c(C#N)c2nc3ccccc3nc21 (centres unmarked), Cc1ccc(SCC(=O)NNC(=O)c2ccccc2)c(C)c1 is higher in “hERG current change (%, negative = inhibition) at 10uM” value: 0.57% for the first, 4.32% for the second.

Going from O=C(OCC(=O)N1CCOCC1)c1ccc(Cl)cc1[N+](=O)[O-] to CCOC(=O)C1CCN(C(=O)COC(=O)c2ccc3[nH]c4c(c3c2)CCCC4)CC1, the “hERG current change (%, negative = inhibition) at 10uM” value rises from 2.42% to 8.13%.

Going from Cc1ccc(S(=O)(=O)CCC(=O)OCC(=O)NCCc2ccc(S(N)(=O)=O)cc2)cc1 to CCc1ccc(C(=O)COC(=O)CCc2nc3ccccc3c(=O)[nH]2)cc1, the “hERG current change (%, negative = inhibition) at 10uM” value falls from 11.7% to -0.315%.

First: Cc1ccc2cc3cc(C(=O)N4CCN(C(=O)c5ccco5)CC4)sc3nc2c1
Second: O=C(NCC(=O)N1CCN(c2ncc(C(F)(F)F)cc2Cl)CC1)c1ccc(Br)o1
The “hERG current change (%, negative = inhibition) at 10uM” value of the first is higher: -28.6% for the first, -50.6% for the second.

Compared with CCOc1ccc(-n2c(O)c(/C=N/Nc3nnc(C)c(=O)[nH]3)c3ccccc3c2=O)cc1, CCc1ccc(C(=O)C(C)OC(=O)c2nn(C)c(=O)c3ccccc23)cc1 (centres unmarked) is lower in “hERG current change (%, negative = inhibition) at 10uM” value: -0.575% for the first, -9.08% for the second.

Compared with N#CC12CCCCC1CC1CCCCC1(C#N)N2CCO (centres unmarked), O=C(NCC1CCCCC1)C1(CC2CC(c3ccc(Cl)cc3)=NO2)CCNCC1 (centres unmarked) is lower in “hERG current change (%, negative = inhibition) at 10uM” value: 6.59% for the first, -71.6% for the second.

First: Cc1ccc(S(=O)(=O)CC(=O)NC(C)(C)C)cc1
Second: Cc1ccc(N(CC(=O)NC2CCCCC2)S(=O)(=O)c2c(C)nn(C)c2C)cc1
The “hERG current change (%, negative = inhibition) at 10uM” value of the first is higher: 27.2% for the first, -12.7% for the second.

Going from COc1ccccc1OCc1nnc(SCC(=O)Nc2ccc(N3CCOCC3)cc2)n1C to COc1ccc(C(=O)NC(=S)Nc2ccc(CN3CCOCC3)cc2)cc1, the “hERG current change (%, negative = inhibition) at 10uM” value falls from 2.8% to -43.8%.

Going from O=C(COc1cccc(-n2cnnn2)c1)NCCC1=CCCCC1 to C=CCNC(=O)C1CCCN(S(=O)(=O)c2ccc(-n3cnnn3)cc2)C1 (centres unmarked), the “hERG current change (%, negative = inhibition) at 10uM” value falls from -20.5% to -27.5%.

Going from CCOC(=O)C1=C(C)NC(=O)NC1/C=C\c1ccccc1 (centres unmarked) to CCOC(=O)C1=C(C)N=C2SC(C)C(=O)N2C1c1ccccc1 (centres unmarked), the “hERG current change (%, negative = inhibition) at 10uM” value falls from 17.5% to -11.4%.

First: COc1cc(C(=O)N(Cc2ccccc2)c2cccc(C)c2)ccc1OC(F)F
Second: C/C=C/c1ccc(OCCCCN(C)Cc2ccccc2)c(OC)c1.O=C(O)C(=O)O
The “hERG current change (%, negative = inhibition) at 10uM” value of the first is higher: 21.6% for the first, -79.4% for the second.

Going from CCn1c(=O)cc(OCC(=O)N(C)c2ccccc2F)c2ccccc21 to Cn1c(OCc2cccnc2)nc2c1c(=O)n(Cc1ccccc1)c(=O)n2C, the “hERG current change (%, negative = inhibition) at 10uM” value falls from -17.8% to -56.1%.

First: CCOc1ccc2cc(S(=O)(=O)N3CCN(C)CC3)ccc2c1
Second: O=S(=O)(c1cccs1)N1CCN(c2ccccc2F)CC1
The “hERG current change (%, negative = inhibition) at 10uM” value of the first is lower: -15.3% for the first, -6.83% for the second.

Compared with CCO[C@H]1OC(C(=O)NC2CC2)=C[C@@H](c2ccc3c(c2)OCO3)[C@@H]1CCCO, CCCNC(=O)N1CCC(c2ccc3c(c2)OCO3)CC1 is lower in “hERG current change (%, negative = inhibition) at 10uM” value: 7.42% for the first, -1.99% for the second.

First: CCN(CC)S(=O)(=O)c1ccc(OC)c(NC(=O)COc2ccc3c(C)cc(=O)oc3c2)c1
Second: COc1ccc(NC(=O)COC(=O)c2ccc(Cl)c(S(N)(=O)=O)c2)c([N+](=O)[O-])c1
The “hERG current change (%, negative = inhibition) at 10uM” value of the first is higher: 10.2% for the first, -2.65% for the second.

First: O=C(N/N=C/c1ccc(Br)s1)c1c[nH]c2ccccc12
Second: COc1ccc(NC(=O)c2cc3ccccc3cc2OC)cc1
The “hERG current change (%, negative = inhibition) at 10uM” value of the first is higher: 7.32% for the first, -1.84% for the second.

First: CN(C)N1C(=O)CC(NNC(=O)c2ccncc2)C1=O (centres unmarked)
Second: COc1ccc(N2C(=O)CC(Nc3ccc(C)cc3)C2=O)cc1 (centres unmarked)
The “hERG current change (%, negative = inhibition) at 10uM” value of the first is lower: -9.24% for the first, -6.7% for the second.

First: COCCNCCCOc1ccc(C)cc1Br
Second: Cc1ccccc1CNCCCSc1ncccn1.Cl
The “hERG current change (%, negative = inhibition) at 10uM” value of the first is lower: -22.7% for the first, 21.1% for the second.

First: O=C(Cn1ncc2c3ccccc3n(Cc3ccc(F)cc3)c2c1=O)N1CCN(c2ncccn2)CC1
Second: O=C(c1ccc(Cn2cnnn2)cc1)N1CCCC(Nc2ccc(F)c(F)c2)C1 (centres unmarked)
The “hERG current change (%, negative = inhibition) at 10uM” value of the first is lower: -16.2% for the first, 0.716% for the second.

Compared with CC(CO)N1CCS(=O)(=O)CC1 (centres unmarked), Cc1cnn(C2CCN(C)CC2)c1N is higher in “hERG current change (%, negative = inhibition) at 10uM” value: 9.55% for the first, 11.2% for the second.

Going from O=C(CC1CCOCC1)Nc1ccc(Cl)c(Cl)c1 to CNc1nc(SCC(=O)Nc2ccc(Cl)c(Cl)c2)nc(N2CCOCC2)n1, the “hERG current change (%, negative = inhibition) at 10uM” value rises from 0.589% to 1.02%.

First: O=c1[nH]c(SCc2ccccc2[N+](=O)[O-])nc2nc[nH]c12
Second: CCCCc1nc2ccccc2c(=O)n1-c1ccc(Cl)cc1[N+](=O)[O-]
The “hERG current change (%, negative = inhibition) at 10uM” value of the first is lower: 11.2% for the first, 31.4% for the second.

Going from CC(=O)/C(C#N)=C1\NC(=O)C(Cc2ccc(C)c(C)c2)S1 (centres unmarked) to Cc1ccc(NC(=O)CSc2nn3c(=O)c(C)nnc3s2)cc1Cl, the “hERG current change (%, negative = inhibition) at 10uM” value falls from 3.01% to -0.177%.

Compared with CCCc1ccc(-c2ccc(C(=O)O)cc2)nc1, Cc1nn(-c2ccccc2)c(C)c1NC(=O)COC(=O)c1ccc(S(=O)(=O)C(F)F)cc1 is lower in “hERG current change (%, negative = inhibition) at 10uM” value: 6.13% for the first, -8.81% for the second.

Compared with COc1cccc(C2NC(=O)c3sc(=S)n(-c4ccccc4)c3N2)c1 (centres unmarked), COc1cccc(CN2C(=O)C3(C(C#N)=C(N)OC4=C3C(=O)CCC4)c3ccccc32)c1 (centres unmarked) is higher in “hERG current change (%, negative = inhibition) at 10uM” value: -12.8% for the first, -3.52% for the second.

First: CCc1cccc(CC)c1NC(=O)CSc1nnc(C2CC2)n1C
Second: Cc1cc(C)nc(SCC(=O)Nc2ccc(Br)cn2)n1
The “hERG current change (%, negative = inhibition) at 10uM” value of the first is higher: 8.69% for the first, -5.2% for the second.

Compared with C=CCc1cc(OC)ccc1OCCN(C)Cc1ccccc1.O=C(O)C(=O)O, COc1ccccc1OCCOc1ccc(/C=C2\C(=N)N3N=C(C)SC3=NC2=O)cc1 is higher in “hERG current change (%, negative = inhibition) at 10uM” value: -16.6% for the first, 14.4% for the second.

Compared with CCC(C)NC(=O)CN(c1ccc(OC)cc1)S(=O)(=O)c1ccc(NC(C)=O)cc1 (centres unmarked), O=C(NCCCN1CCCC1=O)c1ccccc1NS(=O)(=O)c1ccc(F)cc1 is higher in “hERG current change (%, negative = inhibition) at 10uM” value: -9.39% for the first, -5.95% for the second.

Compared with O=C(CNC(=O)N1CC(=O)Nc2ccccc21)Nc1nccs1, COC(=O)C1C(=O)C2=C(CC1C)Nc1ccccc1NC2c1cccs1 (centres unmarked) is lower in “hERG current change (%, negative = inhibition) at 10uM” value: 12% for the first, -0.565% for the second.

Compared with CS(=O)(=O)N(CC(=O)Nc1ccc(Br)cc1F)C1CCCCC1, CC(NC(=O)c1ccc(OC2CCN(S(=O)(=O)N(C)C)CC2)cc1)C1CC1 (centres unmarked) is lower in “hERG current change (%, negative = inhibition) at 10uM” value: 0.49% for the first, -10.4% for the second.

First: CCN1/C(=C/c2ccc3cc(C)ccc3[n+]2CC)Sc2ccccc21.[I-]
Second: Cc1cccc(/C=C2\Oc3cc(OS(C)(=O)=O)ccc3C2=O)c1
The “hERG current change (%, negative = inhibition) at 10uM” value of the first is lower: -90.6% for the first, 5.7% for the second.

First: Cc1nc(SCCC(=O)O)c2ccccc2n1
Second: Cc1cc(NC(=O)CCSc2ccc(Cl)cc2)no1
The “hERG current change (%, negative = inhibition) at 10uM” value of the first is higher: 10% for the first, 1.11% for the second.

Compared with CCOC(=O)C1CCCN(c2c(Nc3ccc(OCC)cc3)c(=O)c2=O)C1 (centres unmarked), CCCOc1cccc(NC(=O)OC2CCN(C)CC2)c1.O=C(O)/C=C/C(=O)O is lower in “hERG current change (%, negative = inhibition) at 10uM” value: -3.97% for the first, -15.7% for the second.

First: O=C(CSc1cccc[n+]1[O-])Nc1ccc([N+](=O)[O-])cc1Cl
Second: Cc1ccc(Nc2nnc(SCC(=O)Nc3cccnc3Cl)s2)cc1C
The “hERG current change (%, negative = inhibition) at 10uM” value of the first is higher: 8.81% for the first, 0.963% for the second.

Going from Cc1ccc(NS(=O)(=O)c2ccc(-n3cccn3)cc2)nc1 to CC1=C(C(=O)Nc2ccc(F)cc2)C(c2cccc(C)c2)n2nc(CCCO)nc2N1 (centres unmarked), the “hERG current change (%, negative = inhibition) at 10uM” value falls from 17.4% to 11.4%.

Going from c1ccc(OCCOCCN2CCOCC2)cc1 to CCCNC(=S)N1CCN(C(c2ccccc2)c2ccccc2)CC1, the “hERG current change (%, negative = inhibition) at 10uM” value falls from 10.4% to 6.18%.

Going from CSc1ccc(-c2c(C#N)c(N)nc3c2CCCC3)cc1 to C=CCNC(=O)/C(C#N)=C/c1c(N2CCN(c3ccccc3)CC2)nc2c(C)cccn2c1=O, the “hERG current change (%, negative = inhibition) at 10uM” value falls from 2.5% to -15.9%.

Compared with COc1cccc(NC(=S)NC(=O)c2c(Cl)c(C)nn2C)c1, Fc1cc(F)cc(NC(=S)N2CCC(c3ccccc3)C2)c1 (centres unmarked) is higher in “hERG current change (%, negative = inhibition) at 10uM” value: -4.74% for the first, 12.2% for the second.

Compared with CCOC(=O)c1cc(C#N)c(N2CCCNCC2)nc1C(F)(F)F, O=C1c2ccccc2S(=O)(=O)c2cc(N3CCC4(CC3)OCCO4)ccc21 is higher in “hERG current change (%, negative = inhibition) at 10uM” value: -25.8% for the first, 1.66% for the second.

CN(C)c1nnnn1-c1ccc(Cl)cc1Cl was tested, and the “hERG current change (%, negative = inhibition) at 10uM” value was 0.276%.
